Laboratory results taken from the supplement of paper PMC10320760.
This is a noisy data set.

B1: Ydj1; a variant is named by its letters at X, in order (parent)
chain: MVKETKFYDILGVPVTATDVEIKKAYRKCALKYHPDKNPSEEAAEKFKEASAAYEILSDPEKRDIYDQFGEDGLSGAGGAGGFPGGGFGFGDDIFSQFFGAGGAQRPRGPQRGKDIKHEISASLEELYKGRTAKLALNKQILCKECEGRGGKKGAVKKCTSCNGQGIKFVTRQMGPMIQRFQTECDVCHGTGDIIDPKDRCKSCNGKKVENERKILEVHVEPGMKDGQRIVFKGEADQAPDVIPGDVVFIVSERPHKSFKRDGDDLVYEAEIDLLTAIAGGEFALEHVSGDWLKVGIVPGEVIAPGMRKVIEGKGMPIPKYGGYGNLIIKFTIKFPENHFTSEENLKKLEEILPPRIVPAIPKKATVDECVLADFDPAKYNRTRASRGGANYDSDEEEQGGEGVQCXXX

Variants of: B1
Assay: enrichment factor, frequency at 37 °C / frequency at 25 °C (thermotolerance selection) (ratio); higher = more growth at 37 °C, higher likelihood of farnesylation
Details: with Saccharomyces cerevisiae ydj1Δ (yWS304); selective temperature 37 °C; reference temperature 25 °C

Row | Variant | enrichment factor
1 | WSK | 0.489
2 | WSE | 1.62
3 | WST | 1.6
4 | WSF | 0.742
5 | WSR | 0.45
6 | WSH | 1.57
7 | WSQ | 1.62
8 | WSI | 2.06
9 | WSP | 1.64
10 | WSN | 1.39
11 | WSG | 1.15
12 | WSM | 1.71
13 | WSD | 0.333
14 | WSL | 1.87
15 | WSC | 0.151
16 | NSK | 0.118
17 | NSH | 2.26
18 | NSR | 0.197
19 | NSG | 0.928
20 | NSC | 1.72
21 | NSL | 1.55
22 | NSP | 0.0847
23 | NSS | 1.78
24 | NSD | 0.211

Row | Variant | enrichment factor
25 | NSE | 0.168
26 | NSQ | 1.58
27 | NSF | 1.93
28 | NSI | 2.78
29 | NSN | 1.08
30 | NST | 1.62
31 | NSV | 1.47
32 | NSM | 2.05
33 | PSN | 1.81
34 | PSM | 1.54
35 | PSH | 1.76
36 | PSF | 1.21
37 | PSL | 1.51
38 | PST | 1.87
39 | PSR | 0.139
40 | PSK | 0.137
41 | PSS | 1.83
42 | PSV | 1.4
43 | PSD | 0.203
44 | PSG | 1.02
45 | PSQ | 1.61
46 | PSE | 0.203
47 | PSC | 2.12
48 | PSI | 1.71

Row | Variant | enrichment factor
49 | PSP | 0.127
50 | DSC | 0.354
51 | DSK | 0.189
52 | DSI | 0.137
53 | DSV | 0.223
54 | DSE | 0.115
55 | DSN | 0.203
56 | DSQ | 1.35
57 | DSG | 0.143
58 | DSF | 1.29
59 | DSS | 0.166
60 | DSM | 1.22
61 | DSD | 0.191
62 | DSL | 0.191
63 | DSH | 0.988
64 | DST | 0.211
65 | DSR | 0.128
66 | DSP | 0.213
67 | HSD | 0.247
68 | HSR | 0.105
69 | HST | 1.77
70 | HSN | 2.27
71 | HSK | 0.228
72 | HSM | 2.38

Row | Variant | enrichment factor
73 | HSS | 2.51
74 | HSQ | 1.69
75 | HSC | 2.38
76 | HSP | 0.161
77 | HSH | 1.93
78 | HSI | 1.43
79 | HSE | 0.203
80 | HSG | 0.727
81 | HSV | 2.38
82 | HSL | 0.54
83 | HSF | 2.13
84 | CSC | 0.326
85 | CSK | 0.193
86 | CSM | 1.17
87 | CSD | 0.255
88 | CSG | 1.54
89 | CSQ | 1.91
90 | CSI | 0.705
91 | CSH | 0.908
92 | CSR | 0.132
93 | CSL | 1.01
94 | CST | 1.39
95 | CSN | 2.04
96 | CSE | 0.531

Row | Variant | enrichment factor
97 | CSF | 0.604
98 | CSS | 1.44
99 | CSP | 0.192
100 | ASF | 2.1
101 | ASN | 1.6
102 | ASV | 1.44
103 | ASE | 0.326
104 | ASL | 1.77
105 | ASD | 0.304
106 | ASH | 2.11
107 | ASC | 0.832
108 | ASK | 0.106
109 | ASR | 0.192
110 | ASP | 0.142
111 | ASQ | 1.61
112 | ASI | 1.62
113 | ASS | 2.18
114 | AST | 1.53
115 | ASM | 1.81
116 | ASG | 1.24
117 | MSF | 0.856
118 | MSS | 1.52
119 | MSI | 1.61
120 | MSV | 1.66

Row | Variant | enrichment factor
121 | MSE | 0.132
122 | MSP | 0.163
123 | MST | 1.88
124 | MSR | 0.185
125 | MSH | 1.63
126 | MSL | 1.13
127 | MSM | 1.77
128 | MSG | 1.51
129 | MSD | 0.171
130 | MSC | 0.668
131 | MSQ | 1.51
132 | MSK | 0.207
133 | MSN | 1.92
134 | FSL | 1.17
135 | FSM | 0.927
136 | FSN | 1.66
137 | FST | 1.62
138 | FSF | 1.46
139 | FSD | 0.208
140 | FSK | 0.0822
141 | FSI | 1.81
142 | FSS | 2.02
143 | FSP | 1.5
144 | FSE | 0.155

Row | Variant | enrichment factor
145 | FSH | 2.09
146 | FSC | 0.358
147 | FSQ | 2.34
148 | FSV | 1.2
149 | FSR | 0.247
150 | FSG | 1.13
151 | GSG | 0.124
152 | GSH | 1.96
153 | GSE | 0.306
154 | GSM | 1.57
155 | GSQ | 1.55
156 | GSP | 0.128
157 | GSS | 1.62
158 | GSN | 0.342
159 | GSD | 0.117
160 | GSV | 1.29
161 | GSC | 1.19
162 | GST | 0.739
163 | GSI | 0.535
164 | GSK | 0.223
165 | GSF | 2.12
166 | GSL | 0.213
167 | GSR | 0.207
